# Assay results as given in a collection of fitness landscapes (doi:10.1016/j.celrep.2020.107928).
# Over roughly 81,000 sequences, “one-hybrid fitness for binding NBS DNA” has its median near -0.1; the highest 2% begin near 0.36. This is one part of the list.
# B1: Caulobacter ParB omega fusion; a variant is named by its letters at X, in order, B8GW30 (parent)
# chain: MESVVVGEPGMSEGRRGLGRGLSALLGEVDAAPAQAPGEQLGGSREAPIEILQRNPDQPRRTFREEDLEDLSNSIREKGVLQPILVRPSPDTAGEYQIVAGERAWRAAQRAGLKTVPIMVRELDDLAVLEIGIIENVQRADLNVLEEALSYKVLMEKFERTQENIAQTIGKSXSHVANXMRLLXLPDEVQSYLVSGELTAXHARAIAAAADPVALAKQIIEGGLSVRETEALARKAPNLSAGKSKGGRPPRVKDTDTQALESDLSSVLGLDVSIDHRGSTGTLTITYATLEQLDDLCNRLTRGI
# Variants of: B1
# Assay: one-hybrid fitness for binding NBS DNA (the Noc-binding site; scaled: cognate 1, non-cognate 0); higher = stronger binding
# Details: with NBS DNA site
# Procedure, shortened: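 Fitness is the rescaled log change in variant-to-wild-type read ratio, measured by Illumina sequencing of plasmids before and after bacterial one-hybrid selection. The scale puts cognate at 1 and non-cognate at 0. Selection of Caulobacter ParB libraries, four specificity codons randomised, took place in E. coli USO with a HIS3 reporter, site 19 bp from the promoter, over 48 hours at 37°C on M9-minus-histidine with 0.1 mM IPTG and 5 mM 3-AT.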
row,Variant,one-hybrid fitness for binding NBS DNA
1,ERKR,0.275
2,ALGL,≤ 0.2
3,NTDR,≤ 0.2
4,GSIA,≤ 0.2
5,RWAV,≤ 0.2
6,WSED,≤ 0.2
7,HGAD,≤ 0.2
8,GRTE,≤ 0.2
9,TTEN,≤ 0.2
10,RKCV,≤ 0.2
11,WEIL,≤ 0.2
12,DSNG,≤ 0.2
13,RYDY,≤ 0.2
14,ACPY,≤ 0.2
15,ERHV,≤ 0.2
16,DAWC,≤ 0.2
17,LQAL,≤ 0.2
18,SCKS,≤ 0.2
19,DPLE,≤ 0.2
20,QHSH,≤ 0.2
21,LTCC,≤ 0.2
22,EKCC,≤ 0.2
23,NWAR,≤ 0.2
24,WWCY,≤ 0.2
25,LVVV,≤ 0.2

row,Variant,one-hybrid fitness for binding NBS DNA
1,YTRS,≤ 0.2
2,SNVG,≤ 0.2
3,GGSP,≤ 0.2
4,TRGE,≤ 0.2
5,TKAF,≤ 0.2
6,KHVM,≤ 0.2
7,CRHK,≤ 0.2
8,QPSE,≤ 0.2
9,HTKF,≤ 0.2
10,FPTT,≤ 0.2
11,TSTH,≤ 0.2
12,MRNR,≤ 0.2
13,HIES,≤ 0.2
14,IDDR,≤ 0.2
15,QPAF,≤ 0.2
16,MFRK,≤ 0.2
17,AYQG,≤ 0.2
18,RKEP,≤ 0.2
19,YSLR,≤ 0.2
20,SKIL,≤ 0.2
21,PAIM,≤ 0.2
22,AVYR,≤ 0.2
23,NKVR,≤ 0.2
24,TQKA,≤ 0.2
25,CSPP,≤ 0.2

row,Variant,one-hybrid fitness for binding NBS DNA
1,FHKL,≤ 0.2
2,PNAN,≤ 0.2
3,DTPR,≤ 0.2
4,IPMD,≤ 0.2
5,ECKR,≤ 0.2
6,RKQR,0.573
7,LSYM,≤ 0.2
8,MLAD,≤ 0.2
9,RGTA,≤ 0.2
10,CYLC,≤ 0.2
11,NHTV,≤ 0.2
12,TSPF,≤ 0.2
13,AFAG,≤ 0.2
14,PSGA,≤ 0.2
15,SHIP,≤ 0.2
16,HHLI,≤ 0.2
17,EAPW,≤ 0.2
18,CASS,≤ 0.2
19,GAEP,≤ 0.2
20,ELPK,≤ 0.2
21,RLFM,≤ 0.2
22,RCPY,≤ 0.2
23,HAGF,≤ 0.2
24,ESLR,≤ 0.2
25,HLDG,≤ 0.2

row,Variant,one-hybrid fitness for binding NBS DNA
1,HSLW,≤ 0.2
2,FGAT,≤ 0.2
3,CWIR,0.36
4,PGWR,≤ 0.2
5,PACA,≤ 0.2
6,RWEY,≤ 0.2
7,IENT,≤ 0.2
8,HNAG,≤ 0.2
9,SGKG,≤ 0.2
10,QVYI,≤ 0.2
11,QNTD,≤ 0.2
12,ELPE,≤ 0.2
13,WMLA,≤ 0.2
14,SAKA,≤ 0.2
15,IQDT,≤ 0.2
16,ATCF,≤ 0.2
17,CLYL,≤ 0.2
18,LDMK,≤ 0.2
19,GCNC,≤ 0.2
20,HDLC,≤ 0.2
21,GNSW,≤ 0.2
22,PYWI,≤ 0.2
23,LDTV,≤ 0.2
24,IYTT,≤ 0.2
25,EFAS,≤ 0.2

row,Variant,one-hybrid fitness for binding NBS DNA
1,ENHC,≤ 0.2
2,LCKY,≤ 0.2
3,CGGV,≤ 0.2
4,HGNW,≤ 0.2
5,FDNC,≤ 0.2
6,LQTS,≤ 0.2
7,RSAT,0.414
8,QCMK,≤ 0.2
9,PIVR,≤ 0.2
10,TTCS,≤ 0.2
11,ASRY,≤ 0.2
12,AMPM,≤ 0.2
13,YARA,≤ 0.2
14,VARE,≤ 0.2
15,SEKY,≤ 0.2
16,TMKN,≤ 0.2
17,AFTT,≤ 0.2
18,SMYK,≤ 0.2
19,YEDS,≤ 0.2
20,LFDS,≤ 0.2
21,YLCS,≤ 0.2
22,HTET,≤ 0.2
23,SYLC,≤ 0.2
24,VYPS,≤ 0.2
25,WWPE,≤ 0.2

row,Variant,one-hybrid fitness for binding NBS DNA
1,ENTI,≤ 0.2
2,TGLS,≤ 0.2
3,WNHG,≤ 0.2
4,QYNI,≤ 0.2
5,SYWY,≤ 0.2
6,WQDR,≤ 0.2
7,EMMR,0.344
8,FCQC,≤ 0.2
9,KAAM,≤ 0.2
10,NTYR,≤ 0.2
11,PSQL,≤ 0.2
12,VKCA,≤ 0.2
13,TKYI,≤ 0.2
14,HHRV,≤ 0.2
15,MGKC,≤ 0.2
16,VSTL,≤ 0.2
17,PIDG,≤ 0.2
18,AYLG,≤ 0.2
19,RPQD,≤ 0.2
20,RDYR,≤ 0.2
21,PHCY,≤ 0.2
22,SIKD,≤ 0.2
23,VVTQ,≤ 0.2
24,WTPH,≤ 0.2
25,RWCN,≤ 0.2

row,Variant,one-hybrid fitness for binding NBS DNA
1,PQHR,≤ 0.2
2,NYVI,≤ 0.2
3,WKGT,≤ 0.2
4,EMKS,≤ 0.2
5,CCVG,≤ 0.2
6,APFF,≤ 0.2
7,LAGH,≤ 0.2
8,QSHA,0.275
9,YEVS,≤ 0.2
10,CTLN,≤ 0.2
11,RYMA,≤ 0.2
12,QHQT,0.363
13,PGND,≤ 0.2
14,PYVQ,≤ 0.2
15,WTGH,≤ 0.2
16,NFGT,≤ 0.2
17,LSWL,≤ 0.2
18,KSDT,≤ 0.2
19,DSDL,≤ 0.2
20,RILW,≤ 0.2
21,NLFG,≤ 0.2
22,QVRM,≤ 0.2
23,QTTN,0.236
24,QSKD,0.203
25,LDND,≤ 0.2

row,Variant,one-hybrid fitness for binding NBS DNA
1,SLTD,≤ 0.2
2,DQTG,≤ 0.2
3,VLDY,≤ 0.2
4,RAMD,≤ 0.2
5,LEID,≤ 0.2
6,IDLR,≤ 0.2
7,NYQC,≤ 0.2
8,FCQS,≤ 0.2
9,STPN,≤ 0.2
10,IRPV,≤ 0.2
11,TLPP,≤ 0.2
12,LQDI,≤ 0.2
13,YHPM,≤ 0.2
14,DTML,≤ 0.2
15,ELDT,≤ 0.2
16,AVMP,≤ 0.2
17,ETHW,≤ 0.2
18,CPYT,≤ 0.2
19,ATQS,≤ 0.2
20,TNCV,≤ 0.2
